According to PubChem BioAssay AID1454 (National Center for Advancing Translational Sciences (NCATS), 2008):
About 550 (0.42%) of roughly 130,000 compounds were called active. Inconclusive means that the source gave no clear call. Such entries were picked first, then a sample of the others. Calls follow the shape of the dose curve; as a rule, active = well fitted inhibition curve with a large enough effect; inconclusive = small, poorly fitted or top-dose-only effect, or effect the other way; inactive = flat fitted curve, though single readings scatter. No potency is given beside an inconclusive call; the fits are too rough.

Assay: qHTS Assay for Inhibitors of the ERK Signaling Pathway using a Homogeneous Screening Assay; Stimulation with EGF; also: nearly all actives have a fitted effect of over 55% in size;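 as to activity change, negative = inhibition: plate controls were stimulated vehicle wells for no effect and unstimulated vehicle basal for full effect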
Details: HEK293-V1b, EGF-stimulated phospho-ERK AlphaScreen; activity change, negative = inhibition: at the top concentration
In short: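 V1b-HEK293, 1% FBS o/n; cpd 30 min 37C; EGF 25 nM final, 5 min; lyse 10 min; AlphaScreen beads 5 h RT. Normalized DMSO basal vs EGF max; Hill AC50.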
Potency is read from the fitted curve at half-maximal effect; tags tell the direction and shape of the fitted curve.

SMILES | Potency | activity change, negative = inhibition
O=C(CCCN1C(=O)/C(=C/c2ccccc2)SC1=S)Nc1ccc(O)cc1 | inconclusive [inhibitor, single point] | –
CCOC(=O)C1(CCOc2ccccc2)CCN(Cc2cccn2-c2ncccn2)CC1 | inconclusive [inhibitor, partial curve, poor fit] | –
CCOc1ncnc2c1sc1nc(C)cc(C)c12 | inconclusive [activator, partial curve] | –
CCOC(=O)Nc1ccc2c(c1)N(C(=O)CCN1CCOCC1)c1ccccc1S2 | inconclusive [activator, single point] | –
C=C(C)C(=O)C1CCCCC1 | – | inactive: -12.5%
CCOC(=O)c1c(CSc2ccc(C)cc2)n(C)c2cc(Br)c(O)c(CN(C)C)c12 | inconclusive [inhibitor, single point] | –
CC1=NN(C(=O)c2ccccc2)C(O)(c2ccc(Br)cc2)C1 (stereo not given) | inconclusive [inhibitor, partial curve, poor fit] | –
Cc1cc(C(=O)N/N=C/c2cc(Cl)cc([N+](=O)[O-])c2O)c2ccccc2n1 | – | inactive: -1.38%
CCCCC1=CC2=C(c3ccco3)C(=O)C(C)(OC(=O)c3ccc(OC)cc3)C(=O)C2=CN1Cc1ccc2c(c1)OCO2 (stereo not given) | inconclusive [inhibitor, partial curve] | –
Cc1ccc(C(=O)OCCn2cc(C#N)c(=O)[nH]c2=O)cc1 | – | inactive: 7.82%
Nc1c2c(nc3c1CCC3)CCCC2 | inconclusive [activator, partial curve] | –
COc1cc(N2C(=O)C=CC2=O)c(OC)cc1Cl | inconclusive [inhibitor, single point] | –
COc1ccccc1NS(=O)(=O)c1cccc(NC(=O)NC2CCCCC2)c1 | inconclusive [inhibitor, single point] | –
COC(=O)c1ccc(NC(=O)Cc2ccc(F)cc2)cc1 | inconclusive [inhibitor, single point] | –
CCn1ccnc1CN1CCCC(C(=O)c2ccc3cc(OC)ccc3c2)C1 (stereo not given) | inconclusive [inhibitor, single point] | –
COc1ccc2[nH]c(CN3CCN(CC(C)C)C(CCO)C3)c(C)c2c1 (stereo not given) | inconclusive [inhibitor, single point] | –
O=C(N/N=C/c1ccco1)c1cc(-c2ccc(Cl)s2)[nH]n1 | inconclusive [activator, full curve, poor fit] | –
Cc1cccc(NC(=O)c2ccc3c(Cl)c4c(nc3c2)CCCC4)n1 | inconclusive [inhibitor, full curve] | –
CC(=O)N1c2ccccc2C(C)(C)C2CCC(C)CC21 (stereo not given) | inconclusive [inhibitor, single point] | –
Cc1cc(Sc2nnc(N)s2)c2ccccc2n1 | inconclusive [activator, full curve, poor fit] | –
CCC(=O)Nc1ccc(C(=O)OCc2ccc(Cl)c(Cl)c2)cc1 | inconclusive [inhibitor, single point] | –
CN=C1C=C/C(=N/N=c2\ccn(O)cc2C)C=C1C | active: 17.8 µM | –

SMILES | Potency | activity change, negative = inhibition
O=C(NC1CC1)C1CCN(S(=O)(=O)c2cc(Cl)ccc2Cl)CC1 | – | inactive: 0.138%
CN(C)c1ccc(/C=C2\CCC/C(=C\c3ccccc3)C2=O)cc1 | – | inactive: -4.43%
CCOc1ccc2oc(-c3ccccc3)c(C(=O)O)c2c1 | inconclusive [inhibitor, partial curve] | –
C(=N\N1CCN(C(c2ccccc2)c2ccccc2)CC1)/c1ccc2c(c1)OCO2 | inconclusive [inhibitor, partial curve] | –
c1ccc(N2CCN(c3ccccc3)C2c2cccnc2)cc1 | inconclusive [inhibitor, partial curve] | –
Cn1c(SCC(=O)N/N=C/c2ccc([N+](=O)[O-])s2)nnc1-c1ccc(Cl)cc1 | inconclusive [inhibitor, single point] | –
CC1OC(O[C@H]2CC[C@]3(C)C4C=C[C@]56OC[C@@]7(CC[C@@H](C)[C@H](C)C75)[C@H](O)C[C@@]6(C)[C@]4(C)CC[C@H]3C2(C)C)C(OC2OC(CO)C(O)C(O)C2OC2OCC(O)C(O)C2O)C(O)C1O (stereo not given in full) | inconclusive [inhibitor, single point] | –
COc1ccc(-c2coc3cc4oc(=O)cc(-c5ccccc5)c4cc23)cc1F | inconclusive [activator, full curve, poor fit] | –
Clc1ccc(-c2csc(N3CCOCC3)n2)cc1 | inconclusive [inhibitor, single point] | –
CC(C)(CO)[C@@H](O)C(=O)NCCCO | – | inactive: -12.2%
CSc1ccc(/C=N\NC(=O)CC(=O)NC(C)C)cc1 | – | inactive: -17.2%
O=C(CCCN1C(=O)/C(=C/c2ccccc2Cl)SC1=S)NNC(=O)c1ccncc1 | inconclusive [inhibitor, partial curve] | –
O=C1c2cccnc2C(=O)N1Cc1ccccc1 | – | inactive: 1.25%
COc1ccc(NC(=O)N2CC[C@@]3(CCCN(S(C)(=O)=O)C3)C2)cc1 | inconclusive [inhibitor, single point] | –
CCc1c(C)nc(SCC(=O)Nc2nc(-c3ccc(OC)cc3)cs2)[nH]c1=O | inconclusive [inhibitor, single point] | –
O=C(O)C1CCC[C@@H]2[C@@H]3CC(CN12)[C@@H]1CCCCN1C3 (stereo not given in full) | – | inactive: -8.47%
Cc1cccc(N2CCN(S(=O)(=O)c3cccc4nonc34)CC2C)c1 (stereo not given) | inconclusive [inhibitor, single point] | –
COc1ccc(C(=O)N(O)c2ccccc2)cc1 | – | inactive: -6.73%
COc1ccc2oc(=O)c(C(=O)C[n+]3cccc(C)c3)cc2c1 | – | inactive: -6.13%
O=C(CSc1ncnc2[nH]ncc12)Nc1nc(-c2ccc(F)c(F)c2)cs1 | inconclusive [inhibitor, partial curve] | –
O=C(CCCN1C(=O)/C(=C/c2cccs2)SC1=S)NNC(=O)c1ccccc1O | inconclusive [inhibitor, partial curve] | –
COC(=O)CCN(C(=O)c1ccc(N2CCCCC2)c([N+](=O)[O-])c1)c1ccccn1 | inconclusive [inhibitor, partial curve] | –

SMILES | Potency | activity change, negative = inhibition
FC(F)(F)c1ccccc1-c1cc(N2CCNCC2)ncn1 | – | inactive: 26.8%
COc1cc(/C=N/NC(=O)c2cccc([N+](=O)[O-])c2)ccc1OC(=O)c1ccco1 | inconclusive [inhibitor, single point] | –
COc1ccc(Cl)cc1NC(=S)N(Cc1cccnc1)Cc1ccco1 | inconclusive [inhibitor, single point] | –
CCN1/C(=C2\C(=O)N(C)C(=S)N2c2ccccc2)C=Cc2ccccc21 | inconclusive [inhibitor, partial curve] | –
COc1ccc2nc(NC(=O)c3ccc(NS(=O)(=O)c4cccs4)cc3)sc2c1 | inconclusive [inhibitor, single point] | –
CCC(C)c1ccccc1NC(=O)c1cc2cccc([N+](=O)[O-])c2[nH]1 (stereo not given) | inconclusive [inhibitor, single point] | –
Cc1cc(C)n(-c2ccc(C(=O)Nc3ccc(C)c(S(=O)(=O)N4CCOCC4)c3)cc2)n1 | inconclusive [inhibitor, single point] | –
CCN1C(=O)/C(=C\c2nc3ccccc3c(=O)n2-c2ccccc2)c2ccccc21 | inconclusive [inhibitor, partial curve] | –
Nc1c(S(=O)(=O)O)cc(Nc2ccc(Nc3nc(Cl)nc(Nc4ccc(S(=O)(=O)O)cc4)n3)c(S(=O)(=O)O)c2)c2c1C(=O)c1ccccc1C2=O | active: 25.1 µM | –
CCOCCCNC(=O)/C(C#N)=C/c1ccc(Cl)c([N+](=O)[O-])c1 | inconclusive [inhibitor, partial curve] | –
CCN(Cc1ccncc1)Cc1c(O)ccc2cc(Br)ccc12 | inconclusive [activator, full curve, poor fit] | –
NCCC[C@H](N)CC(=O)N[C@H]1CNC(=O)[C@@H]([C@@H]2C[C@H](O)N=C(N)N2)NC(=O)/C(=C/NC(N)=O)NC(=O)[C@@H](CO)NC(=O)[C@@H](CO)NC1=O | – | inactive: -8.78% [at 25.7 µM]
CCCCCCCCCCCCC/C=C/[C@@H](O)[C@H](CO)N(C)C | – | inactive: -1.3%
COc1ccc(CC2(C)OC(c3ccncc3)=NN2C(C)=O)cc1 (stereo not given) | inconclusive [inhibitor, single point] | –
Oc1cc(-c2ccccc2)c2ccccc2c1 | – | inactive: 5.29%
CN(C)c1ccc(N=Nc2ccccc2C(=O)OCC(=O)N(C)C2CCCCC2)cc1 | inconclusive [inhibitor, partial curve] | –
COc1ccc(Nc2cc(C(=O)NCCCN3CCN(C)CC3)c3ccccc3n2)cc1OC | inconclusive [activator, partial curve] | –
C=CCOC(=O)C(=O)/C=C/c1csc2ccccc12 | inconclusive [inhibitor, single point] | –
CCOc1ccc(NC(=S)NCCCN2CCN(c3ccc(OC)cc3)CC2)cc1 | inconclusive [inhibitor, single point] | –
COc1ccc(NC(=S)NC(NC(=O)c2cccc(Cl)c2)C(Cl)(Cl)Cl)c([N+](=O)[O-])c1 (stereo not given) | – | inactive: 0.511%
CCCCCCCCCCCCCCCC[n+]1cccc2ccccc21 | inconclusive [inhibitor, single point] | –
